These results are taken from the supplement of paper PMC4967469.

The IC50 comes from the fitted curve, where viability falls to half of the control; a fit beyond the top or the lowest dose is shown as a bound at that dose. For AUC the same curve is integrated over the 256-fold range of doses and scaled to a fraction: 1 means no effect, lower means more sensitive. For some assays here: Where the top dose is marked as inferred, it was derived from the fitted curves, not read from the paper. For some assays here: An entry number marks a drug with two screens in the source, which often give different values.

Holding throughout (assay): Viability of human cancer cell lines after 72 h of drug (GDSC screen)
Compound in one assay: C/C(O)=C(\C#N)C(=O)Nc1cc(Br)ccc1Br [LFM-A13]
Particulars: top dose 16 µM; top dose inferred. As for the experimental part:
(§1)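 Human cancer cell lines in 384-well plates, medium with 10% serum, drug for 72 h over a 256-fold dose range (nine 2-fold or five 4-fold steps up to the top dose). Adherent lines were fixed and stained with the nucleic acid dye Syto60, suspension lines read with resazurin; signal relative to control wells, capped at 0 and 100%. One two-parameter sigmoid per drug and line, fitted in a mixed model over all curves with the slope shared within a line.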

Compound in a further assay: CCNC(=O)c1noc(-c2cc(C(C)C)c(O)cc2O)c1-c1ccc(CN2CCOCC2)cc1 [AUY922]
Particulars: top dose 0.256 µM; top dose inferred. As for the experimental part:
as §1

Compound in a further assay: CC(O)(CS(=O)(=O)c1ccc(F)cc1)C(=O)Nc1ccc(C#N)c(C(F)(F)F)c1 [Bicalutamide]
To be noted: top dose inferred. As for the experimental part:
as §1

Compound in the next assay: Nc1ccn([C@@H]2O[C@H](CO)[C@@H](O)C2(F)F)c(=O)n1 [Gemcitabine]
Particulars: top dose 1.024 µM. As for the experimental part:
as §1

Compound in the next assay: NC(=O)c1cccc(-c2cc(Nc3ccc(OC(F)(F)F)cc3)ncn2)c1 [GNF-2]
Particulars: top dose 1.28 µM; top dose inferred. As for the experimental part: as §1

Compound in another assay: Cc1cn(-c2cc(NC(=O)c3ccc(C)c(Nc4nccc(-c5cccnc5)n4)c3)cc(C(F)(F)F)c2)cn1 [Nilotinib]
To be noted: top dose 2 µM. As for the experimental part:
as §1

Compound in a further assay: O=S(=O)(c1ccccc1)N(CC(F)(F)F)c1ccc(C(O)(C(F)(F)F)C(F)(F)F)cc1 [T0901317]
Particulars: top dose 10.24 µM; top dose inferred. As for the experimental part: as §1

Compound in another assay: Cc1ccc(Nc2cc(-c3cccc(N4C(=O)c5ccccc5C4=O)c3)ncn2)cc1NS(C)(=O)=O [KIN001-270]
Particulars: top dose 20 µM; top dose inferred. As for the experimental part:
as §1

Compound in a further assay: CC(C)c1ccccc1Cc1cc(C(=O)Nc2ccc(S(=O)(=O)c3ccccc3C(C)(C)C)cc2)c(O)c(O)c1O [TW-37]
Particulars: top dose 5 µM. As for the experimental part:
as §1

Compound in the next assay: S=C(NCc1ccc2c(c1)OCO2)N1CCN(c2ncnc3c2oc2ccccc23)CC1 [MP470]
Particulars: top dose 20 µM; top dose inferred. As for the experimental part: as §1

Where [1] appears, read: top dose 1.024 µM, screen: GDSC drug entry 150.
The mark [2] stands for this setting: top dose 10 µM, screen: GDSC drug entry 1502.

In the case of ETK-1 (biliary tract, adherent), the AUC was found to be 0.974 with LFM-A13; 0.6 in the assay with AUY922; 0.983 with Bicalutamide (setting [1]); 0.978 in the assay with Bicalutamide (setting [2]); 0.258 in the assay with Gemcitabine; 0.904 in the assay with GNF-2. In addition, the AUC with Nilotinib was determined as 0.977; with T0901317, 0.98; with KIN001-270, 0.963; with TW-37, 0.649; with MP470, 0.588. Besides, the IC50 in the assay with LFM-A13 was more than 16 µM; in the assay with AUY922, 0.0313 µM; with Bicalutamide (setting [1]), more than 1.02 µM; in the assay with Bicalutamide (setting [2]) it was more than 10 µM; in the assay with Gemcitabine it was 0.0117 µM; with GNF-2, more than 1.28 µM. In addition, the IC50 with Nilotinib is more than 2 µM; with T0901317 it was more than 10.2 µM; with KIN001-270 it was more than 20 µM; in the assay with TW-37, 0.86 µM; with MP470, 2.25 µM.

As to “NCI-H209 (small cell lung carcinoma, suspension)”, the AUC worked out at 0.986 with LFM-A13; 0.965 in the assay with AUY922; 0.975 with Bicalutamide (setting [1]); 0.966 in the assay with Bicalutamide (setting [2]); 0.455 with Gemcitabine; 0.964 in the assay with GNF-2. Besides, the AUC in the assay with Nilotinib came out at 0.926; with T0901317 it was 0.963; with KIN001-270 it was 0.976; with TW-37, 0.561; with MP470, 0.883. Besides, the IC50 with LFM-A13 is more than 16 µM; in the assay with AUY922, more than 0.256 µM; in the assay with Bicalutamide (setting [1]), more than 1.02 µM; with Bicalutamide (setting [2]), more than 10 µM; in the assay with Gemcitabine, 0.0478 µM; in the assay with GNF-2 it was more than 1.28 µM. Also, the IC50 in the assay with Nilotinib was more than 2 µM; with T0901317, more than 10.2 µM; in the assay with KIN001-270 it was more than 20 µM; with TW-37 it was 0.464 µM; with MP470, more than 20 µM.

A101D (melanoma, adherent): the AUC came out at 0.958 in the assay with LFM-A13; 0.546 in the assay with AUY922; 0.981 with Bicalutamide (setting [1]); 0.957 in the assay with Bicalutamide (setting [2]); 0.23 with Gemcitabine; 0.968 in the assay with GNF-2. For the same cell line, the AUC is 0.897 with Nilotinib; 0.979 with T0901317; 0.977 with KIN001-270; 0.367 with TW-37; 0.979 with MP470. Besides, the IC50 with LFM-A13 is more than 16 µM; with AUY922, 0.022 µM; in the assay with Bicalutamide (setting [1]), more than 1.02 µM; in the assay with Bicalutamide (setting [2]), more than 10 µM; with Gemcitabine it was 0.00857 µM; with GNF-2, more than 1.28 µM. Also, the IC50 was more than 2 µM in the assay with Nilotinib; more than 10.2 µM with T0901317; more than 20 µM with KIN001-270; 0.123 µM with TW-37; more than 20 µM in the assay with MP470.

Regarding “NCI-H510A (small cell lung carcinoma, semi-adherent)”, the AUC worked out at 0.975 with LFM-A13; 0.792 in the assay with AUY922; 0.987 with Bicalutamide (setting [1]); 0.473 with Gemcitabine; 0.981 with GNF-2; 0.989 with Nilotinib. The AUC with T0901317 turned out to be 0.989; with KIN001-270, 0.958; in the assay with TW-37, 0.531. The IC50 with LFM-A13 is more than 16 µM; in the assay with AUY922 it was 0.106 µM; in the assay with Bicalutamide (setting [1]) it was more than 1.02 µM; with Gemcitabine it was 0.0544 µM; in the assay with GNF-2, more than 1.28 µM; with Nilotinib, more than 2 µM. For the same cell line, the IC50 with T0901317 was more than 10.2 µM; with KIN001-270, more than 20 µM; in the assay with TW-37, 0.376 µM.

In the case of MY-M12 (leukaemia, suspension), the AUC with LFM-A13 worked out at 0.916; with AUY922, 0.45; with Bicalutamide (setting [1]) it was 0.97; with Gemcitabine, 0.404; with GNF-2 it was 0.961; with Nilotinib it was 0.28. Besides, the AUC in the assay with T0901317 turned out to be 0.278; in the assay with KIN001-270 it was 0.878; with TW-37, 0.528. Moreover, the IC50 is more than 16 µM with LFM-A13; 0.0115 µM in the assay with AUY922; more than 1.02 µM with Bicalutamide (setting [1]); 0.0337 µM with Gemcitabine; more than 1.28 µM in the assay with GNF-2; 0.0271 µM with Nilotinib. For the same cell line, the IC50 was 0.137 µM in the assay with T0901317, more than 20 µM with KIN001-270 and 0.375 µM with TW-37.

“IST-SL2 (small cell lung carcinoma, suspension)”: the AUC in the assay with LFM-A13 stood at 0.947; with AUY922 it was 0.581; with Bicalutamide (setting [1]), 0.988; with Bicalutamide (setting [2]) it was 0.964; with Gemcitabine, 0.23; with GNF-2 it was 0.989. For the same cell line, the AUC with Nilotinib turned out to be 0.97; with T0901317, 0.887; with TW-37, 0.56; with MP470, 0.639. Moreover, the IC50 was more than 16 µM in the assay with LFM-A13; 0.0266 µM in the assay with AUY922; more than 1.02 µM with Bicalutamide (setting [1]); more than 10 µM with Bicalutamide (setting [2]); 0.0106 µM in the assay with Gemcitabine; more than 1.28 µM with GNF-2. Besides, the IC50 with Nilotinib is more than 2 µM; with T0901317, more than 10.2 µM; with TW-37 it was 0.454 µM; with MP470 it was 3.02 µM.

The term IC50 denotes the concentration at which inhibition is half-maximal.
